{"sequences": {"note": "The chains behind the UniProt entries cited, without tags or fusion partners. Where a name states a change or a piece, a line headed by the entry shows the natural chain unless it says otherwise. A line that says so, or that is headed by a name, gives the form on record, which may keep a tag or linker. Residues count along the entry.", "UniProt O88545": "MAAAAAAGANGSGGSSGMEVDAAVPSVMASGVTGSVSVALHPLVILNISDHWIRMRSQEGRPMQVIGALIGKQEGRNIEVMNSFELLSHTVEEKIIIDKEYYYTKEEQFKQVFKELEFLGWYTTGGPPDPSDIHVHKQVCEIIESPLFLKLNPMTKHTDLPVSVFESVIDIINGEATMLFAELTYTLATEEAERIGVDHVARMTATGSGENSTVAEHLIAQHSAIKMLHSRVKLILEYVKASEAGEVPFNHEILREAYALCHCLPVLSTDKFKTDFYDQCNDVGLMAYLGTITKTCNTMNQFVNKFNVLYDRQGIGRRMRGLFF", "HA-tagged mouse Csn6 truncation mutant HA-S6MPN": "residues 38-171 of O88545", "UniProt Q13098": "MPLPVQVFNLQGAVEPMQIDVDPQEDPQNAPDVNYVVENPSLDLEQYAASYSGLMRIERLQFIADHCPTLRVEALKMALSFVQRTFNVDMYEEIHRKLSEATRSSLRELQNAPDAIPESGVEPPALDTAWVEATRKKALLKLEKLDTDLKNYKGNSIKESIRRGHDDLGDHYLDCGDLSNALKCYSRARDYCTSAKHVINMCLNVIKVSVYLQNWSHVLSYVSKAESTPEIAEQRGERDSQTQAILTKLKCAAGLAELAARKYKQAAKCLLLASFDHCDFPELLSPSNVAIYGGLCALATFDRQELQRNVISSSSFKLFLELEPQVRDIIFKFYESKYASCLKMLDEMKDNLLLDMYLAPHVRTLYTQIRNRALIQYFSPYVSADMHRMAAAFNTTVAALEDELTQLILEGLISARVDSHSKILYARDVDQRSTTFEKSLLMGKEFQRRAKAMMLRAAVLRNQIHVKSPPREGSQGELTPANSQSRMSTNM", "UniProt P61201": "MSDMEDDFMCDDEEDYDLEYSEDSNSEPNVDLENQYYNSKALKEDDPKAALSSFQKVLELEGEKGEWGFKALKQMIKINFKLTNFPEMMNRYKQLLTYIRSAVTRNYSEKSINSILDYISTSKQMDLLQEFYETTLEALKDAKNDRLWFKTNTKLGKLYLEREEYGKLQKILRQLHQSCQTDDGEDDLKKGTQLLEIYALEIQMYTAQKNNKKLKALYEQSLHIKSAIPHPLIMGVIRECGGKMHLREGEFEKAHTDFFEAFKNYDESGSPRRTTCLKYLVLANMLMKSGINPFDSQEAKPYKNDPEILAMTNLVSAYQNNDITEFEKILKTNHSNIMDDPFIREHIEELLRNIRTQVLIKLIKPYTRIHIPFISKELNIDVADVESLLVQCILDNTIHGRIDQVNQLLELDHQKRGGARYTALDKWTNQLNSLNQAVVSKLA", "UniProt Q92905": "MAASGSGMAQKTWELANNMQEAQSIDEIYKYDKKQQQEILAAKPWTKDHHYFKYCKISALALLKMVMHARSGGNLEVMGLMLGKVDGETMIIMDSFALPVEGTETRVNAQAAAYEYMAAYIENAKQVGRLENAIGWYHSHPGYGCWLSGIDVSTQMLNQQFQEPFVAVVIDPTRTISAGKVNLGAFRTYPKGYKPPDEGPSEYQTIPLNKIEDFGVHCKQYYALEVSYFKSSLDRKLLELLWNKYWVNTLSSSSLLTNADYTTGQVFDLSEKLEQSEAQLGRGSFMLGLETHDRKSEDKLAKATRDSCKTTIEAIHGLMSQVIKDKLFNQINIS", "UniProt Q99627": "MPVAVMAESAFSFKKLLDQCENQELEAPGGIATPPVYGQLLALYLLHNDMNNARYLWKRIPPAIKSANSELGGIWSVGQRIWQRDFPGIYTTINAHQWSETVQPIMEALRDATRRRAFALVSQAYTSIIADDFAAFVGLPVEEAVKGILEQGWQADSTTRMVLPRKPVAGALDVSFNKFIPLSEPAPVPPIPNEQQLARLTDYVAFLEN", "UniProt Q9UNS2": "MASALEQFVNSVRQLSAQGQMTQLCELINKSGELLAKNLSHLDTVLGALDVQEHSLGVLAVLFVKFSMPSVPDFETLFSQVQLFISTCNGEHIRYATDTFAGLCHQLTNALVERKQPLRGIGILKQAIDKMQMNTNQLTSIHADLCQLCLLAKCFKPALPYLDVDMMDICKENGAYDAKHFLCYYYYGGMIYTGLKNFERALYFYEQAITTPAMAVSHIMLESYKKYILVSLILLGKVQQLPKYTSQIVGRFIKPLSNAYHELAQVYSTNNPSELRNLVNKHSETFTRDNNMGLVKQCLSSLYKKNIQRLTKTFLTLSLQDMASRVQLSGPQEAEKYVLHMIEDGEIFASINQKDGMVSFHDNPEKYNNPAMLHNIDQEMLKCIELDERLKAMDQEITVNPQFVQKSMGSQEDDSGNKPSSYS"}, "source": "paper PMC3431379", "key": {"[1]": {"target": "HA-tagged full length mouse Csn6 (HA-S6FL) (mouse) (UniProt O88545)", "test": "co-IP; HA-tagged mouse Csn6 constructs expressed in HeLa cells; HA immunoprecipitation from lysate, immunoblot of endogenous proteins; addition of 330 mM NaCl interfered with CSN-cullin interactions"}, "[2]": {"target": "HA-tagged mouse Csn6 truncation mutant HA-S6MPN (mouse) (UniProt O88545)", "test": "co-IP; HA-tagged mouse Csn6 constructs expressed in HeLa cells; HA immunoprecipitation from lysate, immunoblot of endogenous proteins; addition of 330 mM NaCl interfered with CSN-cullin interactions"}, "[3]": {"target": "HA-tagged full length mouse Csn6 (HA-S6FL) (mouse) (UniProt O88545)", "test": "co-IP; HA-tagged Csn6 constructs co-expressed with Flag-S6FL; HA (Bethyl S190-107) immunoprecipitation from cell lysate, immunoblot for Flag-S6FL and endogenous CSN subunits"}, "[4]": {"target": "HA-tagged mouse Csn6 truncation mutant HA-S6MPN (mouse) (UniProt O88545)", "test": "co-IP; HA-tagged Csn6 constructs co-expressed with Flag-S6FL; HA (Bethyl S190-107) immunoprecipitation from cell lysate, immunoblot for Flag-S6FL and endogenous CSN subunits"}}, "note": "No constants are given. Whether binding was seen depends on the method and setting. Binding seen in cells or lysates may run through a third protein. Some binding calls cover weakened binding; strength is not graded here."}
{"substance": "endogenous Csn1 (from UniProt Q13098 1-491)", "values": [{"measurement": "binding", "setting": "[1]", "result": "binds"}, {"measurement": "binding", "setting": "[2]", "result": "no binding"}]}
{"substance": "endogenous Csn2 (from UniProt P61201 1-443)", "values": [{"measurement": "binding", "setting": "[1]", "result": "binds"}, {"measurement": "binding", "setting": "[2]", "result": "no binding"}]}
{"substance": "Flag-tagged full length Csn6 (Flag-S6FL) (from UniProt O88545 1-324)", "values": [{"measurement": "binding", "setting": "[3]", "result": "no binding"}, {"measurement": "binding", "setting": "[4]", "result": "binds"}]}
{"substance": "endogenous Csn5 (from UniProt Q92905 1-334)", "values": [{"measurement": "binding", "setting": "[1]", "result": "binds"}, {"measurement": "binding", "setting": "[2]", "result": "no binding"}]}
{"substance": "endogenous Csn8 (from UniProt Q99627 1-209)", "values": [{"measurement": "binding", "setting": "[1]", "result": "binds"}, {"measurement": "binding", "setting": "[2]", "result": "no binding"}]}
{"substance": "endogenous Csn3 (from UniProt Q9UNS2 1-423)", "values": [{"measurement": "binding", "setting": "[1]", "result": "binds"}, {"measurement": "binding", "setting": "[2]", "result": "no binding"}]}
